In the supplement of paper PMC12217912:
Some of the results follow. The full chains were built here from the parent and the listed change. Inactive controls read about 0.05.

B1: TEV protease; numbered along this chain (parent)
chain: MGESLFKGPRDYNPISSSICHLTNESDGHTTSLYGIGFGPFIITNKHLFRRNNGTLVVQSLHGVFKVKDTTTLQQHLVDGRDMIIIRMPKDFPPFPQKLKFREPQREERICLVTTNFQTKSMSSMVSDTSCTFPSGDGIFWKHWIQTKDGQCGSPLVSTRDGFIVGIHSASNFTNTNNYFTSVPKNFMELLTNQEAQQWVSGWRLNADSVLWGGHKVFMVKPEEPFQPVKEATQL

Variants of: B1
Test: raw area under fraction-flipped curve 0-4 h after induction (AUC4h, not background-subtracted), DNA-recorder readout of cleavage of the substrate (dimensionless); higher = more cleavage of the substrate by the protease variant
Conditions: temperature: 34 °C; time window: 0-4 h after rhamnose induction
Protocol: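 In vivo DNA recorder in E. coli TOP10(DE3) ΔrhaA at 34 °C. Each TEVp single-site mutant (parent TEVp 0) is paired with a single-site variant of the 7-mer TEVs (canonical ENLYFQ|S). The substrate sits between flexible linkers in a Bxb1-sfGFP-TEVs-SsrA fusion, so cleavage stabilises Bxb1 and speeds flipping of a recombination array, read by NGS. The value is the raw area under the fraction-flipped curve over 0-4 h after rhamnose induction (AUC4h), with ≥20 reads per time point. It is not background-subtracted; inactive controls average about 0.047.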
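Note: Bxb1 expression induced with 0.2% (w/v) L-rhamnose at OD600 near 0.5, cultures sampled hourly, flipped fraction per protease–substrate barcode pair counted by paired-end Illumina sequencing.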

Variant | area with substrate ENLYFQC | area with substrate ENLYFQD | area with substrate ENLYFQF | area with substrate ENLYFQG | area with substrate ENLYFQH | area with substrate ENLYFQL | area with substrate ENLYFQN | area with substrate ENLYFQS | area with substrate ENLYFQT | area with substrate ENLYFQV
MGESLFKGPRDYNPISSSICHLTNESDGHTTSLYGIGFGPFIITNKHLFRRNNGTLVSQSLHGVFKVKDTTTLQQHLVDGRDMIIIRMPKDFPPFPQKLKFREPQREERICLVTTNFQTKSMSSMVSDTSCTFPSGDGIFWKHWIQTKDGQCGSPLVSTRDGFIVGIHSASNFTNTNNYFTSVPKNFMELLTNQEAQQWVSGWRLNADSVLWGGHKVFMVKPEEPFQPVKEATQL [V58S] | 0.0897 | 0.0618 | 0.0696 | 0.0835 | 0.07 | 0.0387 | 0.0807 | 0.0829 | 0.0537 | 0.0576
MGESLFKGPRDYNPISSSICHLTNESDGHTTSLYGIGFGPFIITNKHLFRRNNGTLVLQSLHGVFKVKDTTTLQQHLVDGRDMIIIRMPKDFPPFPQKLKFREPQREERICLVTTNFQTKSMSSMVSDTSCTFPSGDGIFWKHWIQTKDGQCGSPLVSTRDGFIVGIHSASNFTNTNNYFTSVPKNFMELLTNQEAQQWVSGWRLNADSVLWGGHKVFMVKPEEPFQPVKEATQL [V58L] | 0.109 |  |  |  |  | 0.0653 |  | 0.0947 |  | 
MGESLFKGPRDYNPISSSICHLTNESDGHTTSLYGIGFGPFIITNKHLFRRNNGTLVVQSTHGVFKVKDTTTLQQHLVDGRDMIIIRMPKDFPPFPQKLKFREPQREERICLVTTNFQTKSMSSMVSDTSCTFPSGDGIFWKHWIQTKDGQCGSPLVSTRDGFIVGIHSASNFTNTNNYFTSVPKNFMELLTNQEAQQWVSGWRLNADSVLWGGHKVFMVKPEEPFQPVKEATQL [L61T] | 0.118 | 0.0819 |  |  |  |  |  | 0.0983 |  | 
MGESLFKGPRTYNPISSSICHLTNESDGHTTSLYGIGFGPFIITNKHLFRRNNGTLVVQSLHGVFKVKDTTTLQQHLVDGRDMIIIRMPKDFPPFPQKLKFREPQREERICLVTTNFQTKSMSSMVSDTSCTFPSGDGIFWKHWIQTKDGQCGSPLVSTRDGFIVGIHSASNFTNTNNYFTSVPKNFMELLTNQEAQQWVSGWRLNADSVLWGGHKVFMVKPEEPFQPVKEATQL [D11T] | 0.145 |  |  | 0.0854 | 0.0767 |  |  | 0.108 |  | 
MGESLFKGPRDYNPISSSICHLTNESDGHTTSLYGIGFGPFIITNKHLFRRNNGTLVVQSLHGVFKVKDTTTLQQHRVDGRDMIIIRMPKDFPPFPQKLKFREPQREERICLVTTNFQTKSMSSMVSDTSCTFPSGDGIFWKHWIQTKDGQCGSPLVSTRDGFIVGIHSASNFTNTNNYFTSVPKNFMELLTNQEAQQWVSGWRLNADSVLWGGHKVFMVKPEEPFQPVKEATQL [L77R] | 0.0705 |  |  | 0.0668 |  | 0.059 | 0.057 | 0.0693 |  | 
MGESLFKGPRDYNPISSSICHLTNESDGHTTSLYGIGFGPFIITNKHLFRRNNGTLVVRSLHGVFKVKDTTTLQQHLVDGRDMIIIRMPKDFPPFPQKLKFREPQREERICLVTTNFQTKSMSSMVSDTSCTFPSGDGIFWKHWIQTKDGQCGSPLVSTRDGFIVGIHSASNFTNTNNYFTSVPKNFMELLTNQEAQQWVSGWRLNADSVLWGGHKVFMVKPEEPFQPVKEATQL [Q59R] | 0.118 |  | 0.0668 | 0.112 |  |  | 0.0959 | 0.112 | 0.0434 | 0.0641

Same assay, conditions: temperature: 34 °C; time window: 0-4 h after rhamnose induction

Variant | area with substrate ENLYFQW | area with substrate ENLYFQY | area with substrate ENLYFQR | area with substrate ENLYFQK | area with substrate ENLYFQM | area with substrate ENLYFQP | area with substrate ENLYFQI
MGESLFKGPRDYNPISSSICHLTNESDGHTTSLYGIGFGPFIITNKHLFRRNNGTLVSQSLHGVFKVKDTTTLQQHLVDGRDMIIIRMPKDFPPFPQKLKFREPQREERICLVTTNFQTKSMSSMVSDTSCTFPSGDGIFWKHWIQTKDGQCGSPLVSTRDGFIVGIHSASNFTNTNNYFTSVPKNFMELLTNQEAQQWVSGWRLNADSVLWGGHKVFMVKPEEPFQPVKEATQL [V58S] | 0.0474 | 0.0592 |  |  |  |  | 
MGESLFKGPRDYNPISSSICHLTNESDGHTTSLYGIGFGPFIITNKHLFRRNNGTLVLQSLHGVFKVKDTTTLQQHLVDGRDMIIIRMPKDFPPFPQKLKFREPQREERICLVTTNFQTKSMSSMVSDTSCTFPSGDGIFWKHWIQTKDGQCGSPLVSTRDGFIVGIHSASNFTNTNNYFTSVPKNFMELLTNQEAQQWVSGWRLNADSVLWGGHKVFMVKPEEPFQPVKEATQL [V58L] |  | 0.071 | 0.06 |  |  |  | 
MGESLFKGPRDYNPISSSICHLTNESDGHTTSLYGIGFGPFIITNKHLFRRNNGTLVVQSTHGVFKVKDTTTLQQHLVDGRDMIIIRMPKDFPPFPQKLKFREPQREERICLVTTNFQTKSMSSMVSDTSCTFPSGDGIFWKHWIQTKDGQCGSPLVSTRDGFIVGIHSASNFTNTNNYFTSVPKNFMELLTNQEAQQWVSGWRLNADSVLWGGHKVFMVKPEEPFQPVKEATQL [L61T] |  | 0.0679 | 0.0754 | 0.0709 | 0.0585 | 0.0621 | 
MGESLFKGPRTYNPISSSICHLTNESDGHTTSLYGIGFGPFIITNKHLFRRNNGTLVVQSLHGVFKVKDTTTLQQHLVDGRDMIIIRMPKDFPPFPQKLKFREPQREERICLVTTNFQTKSMSSMVSDTSCTFPSGDGIFWKHWIQTKDGQCGSPLVSTRDGFIVGIHSASNFTNTNNYFTSVPKNFMELLTNQEAQQWVSGWRLNADSVLWGGHKVFMVKPEEPFQPVKEATQL [D11T] | 0.0621 |  |  |  |  |  | 0.0534
MGESLFKGPRDYNPISSSICHLTNESDGHTTSLYGIGFGPFIITNKHLFRRNNGTLVVQSLHGVFKVKDTTTLQQHRVDGRDMIIIRMPKDFPPFPQKLKFREPQREERICLVTTNFQTKSMSSMVSDTSCTFPSGDGIFWKHWIQTKDGQCGSPLVSTRDGFIVGIHSASNFTNTNNYFTSVPKNFMELLTNQEAQQWVSGWRLNADSVLWGGHKVFMVKPEEPFQPVKEATQL [L77R] |  |  | 0.0594 |  |  |  | 0.0565
MGESLFKGPRDYNPISSSICHLTNESDGHTTSLYGIGFGPFIITNKHLFRRNNGTLVVRSLHGVFKVKDTTTLQQHLVDGRDMIIIRMPKDFPPFPQKLKFREPQREERICLVTTNFQTKSMSSMVSDTSCTFPSGDGIFWKHWIQTKDGQCGSPLVSTRDGFIVGIHSASNFTNTNNYFTSVPKNFMELLTNQEAQQWVSGWRLNADSVLWGGHKVFMVKPEEPFQPVKEATQL [Q59R] |  |  | 0.0629 |  |  | 0.0526 | 0.0654
